Source: PubChem BioAssay AID504832 (National Center for Advancing Translational Sciences (NCATS), 2011)
“And” between values parts separate entries of the source, which are not always exact repeats. Equal values may be shown once. The campaign covered roughly 310,000 compounds. About 18,000 (5.8%) were called active. Inconclusive means that the source gave no clear call. Such entries were picked first, then a sample of the others. Calls follow the shape of the dose curve; as a rule, active = well fitted inhibition curve with a large enough effect; inconclusive = small, poorly fitted or top-dose-only effect, or another doubt; inactive = no such curve, though single readings can be large or run the other way. Where the call is inconclusive, the potency comes from a doubtful curve fit.
% is scaled to controls: 0 for no effect and ±100 for the full control effect; potency is read from the fitted curve at half-maximal effect; tags tell the direction and shape of the fitted curve.

Experiment: Primary qHTS for delayed death inhibitors of the malarial parasite plastid, 48 hour incubation
Details: P. falciparum luciferase growth in erythrocytes; series mostly up to 28.7 µM; activity change, negative = inhibition: at the top concentration
Summary of the method: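 In quantitative HTS format, infected erythrocytes bearing luciferase-reporter parasites were treated for a single generation at 37 C. Luminescence after adding detection reagent served as the growth measure.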
For COc1ccc(/C=C/C(=O)Nc2cc(C(F)(F)F)ccc2Cl)cc1OC, the Potency was inconclusive: 11.7 µM [inhibitor, partial curve, poor fit]. With Cc1cc(C)cc(N(C(=O)c2sc(C)nc2C)C(C(=O)NC(C)(C)C)c2ccncc2)c1 (configuration not stated) the “activity change, negative = inhibition” value was inactive: -15%. With CC1CC1C(=O)OCC(=O)NC(=O)NC12CC3CC(CC(C3)C1)C2 (configuration not stated) the “activity change, negative = inhibition” value was inactive: 34.7%. In the case of Cc1ccc(CSCCNC(=O)CN(c2cccc([N+](=O)[O-])c2)S(C)(=O)=O)cc1, the Potency is reported as inconclusive: 14.7 µM [inhibitor, partial curve]. For O=[N+]([O-])c1ccccc1S(=O)(=O)c1ccccc1[N+](=O)[O-], the “activity change, negative = inhibition” value was inactive: -3.06%. With COc1ccc(-n2c(Cc3cccn3C)nnc2SCC(=O)Nc2ccc(C)cc2C)cc1 the Potency was inconclusive: 13.1 µM [inhibitor, single point]. In the case of CN(c1ccccc1)c1nc(N2CCCC2)nc(-n2ccnc2)n1, the Potency is reported as active: 5.22 µM. With Cc1ccc2nc(/C(C#N)=C\c3ccc(Oc4ccc([N+](=O)[O-])cn4)cc3)[nH]c2c1 the Potency was active: 9.28 µM. With C/C(=N\Nc1ccccc1Cl)c1ccc(-n2ccnc2)cc1 the Potency was inconclusive: 14.7 µM [inhibitor, partial curve, poor fit]. For Cc1cc(C(C)(C)C)c(OC(=O)[C@@H]2OC(c3ccccc3)=C[C@H]2c2ccccc2)c(C(C)(C)C)c1, the Potency was active: 5.22 µM. With O=S(=O)(c1ccc(OC(F)(F)F)cc1)N1CCCC(N2CCOCC2)C1 (configuration not stated) the “activity change, negative = inhibition” value was inactive: -0.238%. For O=C(c1n[nH]c(=O)c2ccccc12)N1CCN(C2c3ccccc3-c3ccccc32)CC1, the Potency was inconclusive: 5.86 µM [inhibitor, partial curve]. In the case of COc1ccc(NC(=S)NN(C)C(=S)Nc2ccc(OC)cc2)cc1, the “activity change, negative = inhibition” value is reported as inactive: 8.34%. For COc1cc(-c2noc(C)c2C(=O)NCCc2c[nH]c3ccccc23)cc(OC)c1OC, the Potency was inconclusive: 1.04 µM [inhibitor, full curve, poor fit]. For COC(=O)c1ccc(CSc2nnc(NCc3ccccc3)s2)o1, the Potency was inconclusive: 20.8 µM [inhibitor, partial curve, poor fit]. For O=C(CN(C(=O)CCC(=O)Nc1ccccn1)c1cccc(F)c1)NCc1ccco1, the “activity change, negative = inhibition” value was inactive: -6.99%. In the case of Cc1ccc(NC(=O)C2CCCN2C(=O)NC2CCCCC2)c(C)c1 (configuration not stated), the “activity change, negative = inhibition” value is reported as inactive: 16.8%. For Cc1ccccc1NC(=S)/C(=C(\[O-])c1ccc(C)c([N+](=O)[O-])c1)[n+]1ccccc1, the “activity change, negative = inhibition” value was inactive: -4.32%. For Cn1nc(-c2ccc(N3CCOCC3)c(NS(=O)(=O)c3ccccc3)c2)c2ccccc2c1=O, the Potency was inconclusive: 3.7 µM [inhibitor, partial curve, poor fit]. For O=C(NC(=S)Nc1cc(-c2nc3ccccc3[nH]2)ccc1Cl)c1ccc2c(c1)OCO2, the Potency was active: 4.65 µM. In the case of FC(F)Sc1ccc(NC(=S)NC2CCC(NC(=S)Nc3ccc(SC(F)F)cc3)CC2)cc1 (configuration not stated), the Potency is reported as inconclusive: 0.0586 µM [inhibitor, full curve, poor fit]. In the case of CCCNC(=O)c1ccc2c(=O)c(O)c(-c3ccc(Cl)c([N+](=O)[O-])c3)[nH]c2c1, the Potency is reported as inconclusive: 10.4 µM [inhibitor, single point]. With C[C@H](NC(=O)c1nc[nH]c1C(=O)N[C@H](C)c1ccccc1)C(=O)OC(C)(C)C the Potency was inconclusive: 18.5 µM [inhibitor, single point]. With Cc1ccn2c(Nc3ccccc3C)c(-c3ccccn3)nc2c1 the Potency was inconclusive: 4.65 µM [inhibitor, partial curve]. With CCOc1ccc(CCNC(=O)COC(=O)CSc2ccccc2C)cc1OCC the Potency was inconclusive: 10.4 µM [inhibitor, single point]. With COc1ccc(OC)c(NC(=O)C(Sc2ccccc2)c2ccccc2)c1 (configuration not stated) the Potency was inconclusive: 11.7 µM [inhibitor, single point]. For CC(NC(=O)c1cccc(N2CCCC2=O)c1)c1ccc2c(c1)OCCO2 (configuration not stated), the Potency was inconclusive: 18.5 µM [inhibitor, single point]. With COc1ccc(CCNC(=O)C2CCCN(S(=O)(=O)c3ccccc3)C2)cc1 (configuration not stated) the Potency was inconclusive: 1.65 µM [inhibitor, partial curve, poor fit]. For CC(C)Nc1nc(NC2CCCC2)nc(N2CCOCC2)n1, the Potency was inconclusive: 1.47 µM [inhibitor, full curve]. With Cc1cccc(NC(=O)c2cccc(S(=O)(=O)N(C)c3ccccc3)c2)n1 the Potency was active: 7.38 µM. For COc1ccccc1CNC(=O)CC12CC3CC(CC(Br)(C3)C1)C2, the Potency was inconclusive: 13.1 µM [inhibitor, single point]. For COc1ccc(N(CC(=O)N/N=C/c2cc(Br)c(C)o2)S(=O)(=O)c2ccc(NC(C)=O)cc2)cc1, the Potency was inconclusive: 18.5 µM [inhibitor, single point]. For O=S(=O)(NC1CCCC1)c1ccc(S(=O)(=O)N2CCCN(Cc3ccccc3)C2)cc1, the Potency was inconclusive: 11.7 µM [inhibitor, single point]. In the case of O=C(O)CC(NNC(=O)c1ccccc1)C(=O)Nc1cccc([N+](=O)[O-])c1 (configuration not stated), the “activity change, negative = inhibition” value is reported as inactive: 14.6%. In the case of O=C(CCN1CCN(CCO)CC1)N1c2ccccc2Sc2ccc(C(F)(F)F)cc21, the Potency is reported as inconclusive: 19 µM [inhibitor, single point] and inconclusive: 10.4 µM [inhibitor, single point]. In the case of C=CCn1c(C)c(/C=C/c2cc[n+](C)cc2)c2ccccc21, the Potency is reported as active: 0.738 µM. For COc1cccc(N=Nc2ccc3ccccc3c2O)c1, the “activity change, negative = inhibition” value was inactive: -73.7%. With COc1ccc(-n2c(CNC(=O)COc3ccc(Cl)cc3)n[nH]c2=S)cc1 the Potency was inconclusive: 18.5 µM [inhibitor, single point]. In the case of COc1ccccc1NC(=O)C1=C(C)Nc2nc3ccccc3n2C1c1cccs1 (configuration not stated), the Potency is reported as active: 13.1 µM. For N#Cc1nc(N2CCOCC2)nc(N2CCOCC2)n1, the Potency was inconclusive: 9.28 µM [inhibitor, partial curve]. For Cn1c(=O)c2c(nc(CN3CCN(CCO)CC3)n2Cc2cccc3ccccc23)n(C)c1=O, the Potency was inconclusive: 9.28 µM [inhibitor, partial curve]. For COc1ccccc1/C=C1\SC(=S)N(CCC(=O)N2CCCCC2CCO)C1=O (configuration not stated), the Potency was inconclusive: 14.7 µM [inhibitor, single point].
